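Method: 48-hour compound exposure of cells in 96-well plates, five concentrations, linear interpolation of endpoints. GI50 marks 50% less growth.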 Activity calls are given as the source filed them. Cut-off read from the data, not from the text of the source: active = GI50 up to about 1.1 µM and inactive = higher.

The subject of this assay is NCI-H322M. The experiment in a line: NCI-60 cell line screen, 48 h.
With `O=C(O)C(=Cc1ccc(-c2ccccc2)cc1)C(=O)O`, the GI50 is inactive: > 41.1 µM.

As to `CN(C)CCCNc1ccc2ncn3c4ccccc4c(=O)c1c23`, the GI50 is inactive: 7.53 µM.

For the molecule `c1cnc2c3[nH]cc4[nH]c5ccccc5c4c-3nc2c1`, the GI50 was inactive: 54.3 µM.

As to `COc1ccc(/C=C/c2ccnc3ccccc23)c(OC)c1`, the GI50 was inactive: > 10 µM.

As to `C=C1C(=O)OC2C1CCC(C)C1(O)C=CC(=O)C21C` (stereo not drawn), the GI50 was inactive: > 10 µM.

For `CN(C)c1ccc(/C=C/c2ccnc3ccc4ccccc4c23)cc1`, the GI50 is inactive: 26.7 µM.

`CCOC(=O)C(C)c1nc2c(Cl)c3ncccc3cc2[nH]c1=O` (stereo not drawn): the GI50 is inactive: 88.5 µM.

With `CN(C)c1cccc(/C=C(\C#N)c2ccccc2)c1`, the GI50 is active: 0.497 µM.

As to `Nc1nc(N)c2ncn(-c3ccc(Br)cc3)c2n1`, the GI50 is inactive: 77.6 µM.

In the case of `Cc1nc2ccc(C(F)(F)F)cc2nc1Nc1ccc(Cl)c(Cl)c1`, the GI50 was inactive: 12.7 µM.

On to `CC(=O)OC1COC(n2c(=S)n(-c3ccc(C)cc3)c(=O)c3ccccc32)C(OC(C)=O)C1OC(C)=O` (stereo not drawn), for which the GI50 is inactive: > 100 µM.

For the molecule `CCCCOc1ccc(OCCCCCCCCCC[N+](C)(C)C)cc1`, the GI50 is inactive: 9.06 µM.

Consider `Cn1c(=O)cc(N2CCCC2)[nH]c1=O`, for which the GI50 is inactive: > 100 µM.

In the case of `Cc1cc(C)nc(SCC(=O)OC2CC(C)CCC2C(C)C)n1` (stereo not drawn), the GI50 is inactive: 24 µM.

Regarding `C/C=C1/CC(C(=O)OC)N(C(=O)OCc2ccccc2)C1=S` (stereo not drawn), the GI50 is inactive: 44.3 µM.

Take `CC1=C(O)/C(=C/C(C)CCC/C(C)=C/C=C/C(C)CCCc2ccoc2)OC1=O` (stereo not drawn): the GI50 was inactive: 27.2 µM.

For the molecule `CCC[C@H]1O[C@@H]2CC(=O)O[C@@H]2C2=C1C(=O)C=CC2=O`, the GI50 was inactive: > 59.7 µM.

Regarding `CCCCCc1nnc(NS(=O)(=O)c2ccc(NC(=O)OCC(C)C)cc2)s1`, the GI50 was inactive: 44.4 µM.

Regarding `N#Cc1c2c(c(N=P(c3ccccc3)(c3ccccc3)c3ccccc3)n3c1nc1ccccc13)CCCC2`, the GI50 is inactive: 29.7 µM.

As to `Nc1ncnc2c1cnn2COCC(O)CO` (stereo not drawn), the GI50 is inactive: > 100 µM.

Regarding `CC(C)C1=C(Cc2ccccc2)C(=O)O/C1=C\c1cc(Cl)c(O)c(Cl)c1`, the GI50 was inactive: 18 µM.

`O=S(=O)(N=[Se](=O)(c1ccccc1)c1ccccc1)c1ccccc1`: the GI50 is inactive: > 100 µM.

Take `COc1cc(S(=O)(=O)Nc2ccc(-c3csc(N4C(=O)CSC4c4cccs4)n3)cc2)ccc1Cl` (stereo not drawn): the GI50 was inactive: 42.2 µM.

For the molecule `COc1ccc(-c2c(C#N)c(-c3ccc(C)cc3)n(NS(=O)(=O)c3ccc(C)cc3)c(=O)c2C#N)cc1`, the GI50 was inactive: 93.8 µM.

For the molecule `O=C(C#Cc1ccccc1)Nc1ccccc1CC(c1c[nH]c2ccccc12)c1c[nH]c2ccccc12`, the GI50 was inactive: 42.8 µM.

In the case of `CCOC(=O)CC[C@H](N)C(=O)N[C@H](Cc1ccc(N(CCCl)CCCl)cc1)C(=O)OCC`, the GI50 is inactive: 18.5 µM.

`Nc1ccc(S(=O)(=O)Nc2nc3ccccc3nc2N2CCCCCC2)cc1`: the GI50 is inactive: 34.8 µM.

Turning to `CCCCCCNCCCNc1c2cc(OC)ccc2nc2cccc([N+](=O)[O-])c12`, the GI50 was active: 0.0325 µM.

On to `C=C1C(=O)O[C@H]2C[C@@H](C)[C@@H]3CC(=O)OC[C@@]3(C)CC12` (stereo partly drawn), for which the GI50 was inactive: 21.5 µM.

`CCCCN(CCCC)C(=O)C(=O)C(C(=O)c1ccc(OC)cc1)c1ccc(OC)cc1` (stereo not drawn): the GI50 is inactive: > 100 µM.

`O=S(=O)(/C=C/c1ccc(F)cc1)Cc1ccc(CS(=O)(=O)/C=C/c2ccc(F)cc2)cc1`: the GI50 is inactive: > 100 µM.

Regarding `COc1cc(OC)c(C(=O)c2cccs2)cc1N`, the GI50 is inactive: > 100 µM.

In the case of `O=[N+]([O-])c1cc([As](Br)c2ccc(O)c([N+](=O)[O-])c2)ccc1O`, the GI50 was inactive: 1.74 µM.

With `CCOC(=O)NC1CC2CCC1(OC)C=C2C` (stereo not drawn), the GI50 was inactive: > 100 µM.

Consider `CC(C)(C)c1cc(C2c3cc4c(cc3OC(O)(CO)C2C(=O)O)OCO4)cc(C(C)(C)C)c1O.CC(C)(C)c1cc(C2c3cc4c(cc3OC3(O)COC(=O)C23)OCO4)cc(C(C)(C)C)c1O` (stereo not drawn), for which the GI50 was inactive: 14.4 µM.

With `CCP(C)(C)=O`, the GI50 was inactive: > 100 µM.

With `COC(=O)c1cccc2cccc(C(=O)Nc3ccc(Cl)cc3)c12`, the GI50 was inactive: > 100 µM.

In the case of `NC(=O)C12C3C4C1C1C2C3C41C(N)=O` (stereo not drawn), the GI50 is inactive: > 100 µM.

In the case of `C=C[C@@H]1OC(=O)O[C@H]1CO`, the GI50 is inactive: > 100 µM.

In the case of `O=C(Cc1cc(=O)oc2cc(O)ccc12)N/N=C/c1ccc(N(CCCl)CCCl)cc1`, the GI50 is inactive: 18.3 µM.

For the molecule `O=C1C2=C(CCC2)Nc2cccc3ncn1c23`, the GI50 is inactive: > 100 µM.

`COC1CC(OC2OC(CO)C(O)C(O)C2O)/C(=C\C#N)C(O)C1OC` (stereo not drawn): the GI50 is inactive: > 100 µM.

Take `CN1CCN(C(=S)N(C)C(=O)c2ccc(Cl)cc2)CC1`: the GI50 is inactive: > 100 µM.

For `CC(=O)c1[nH]c(NCc2ccccc2)c(C(=S)Nc2ccccc2)c1N`, the GI50 is inactive: 30.7 µM.

`CCOC(=O)C1S/C(=N\c2ccc(Cl)cc2Cl)N=C1C` (stereo not drawn): the GI50 is inactive: > 100 µM.

`O=c1c2ccccc2nc(-c2ccccc2)n1NC1OC(CO)C(O)C(O)C1O` (stereo not drawn): the GI50 is inactive: > 100 µM.

Take `COc1ccccc1-c1csc(CCC(N)C(=O)O)n1` (stereo not drawn): the GI50 was inactive: > 100 µM.

Regarding `[N-]=[N+]=NCc1cccc(Nc2cc(=O)[nH]c(=O)[nH]2)c1`, the GI50 is inactive: > 100 µM.

As for `COc1cc(OC)c(OC)cc1/C=C\c1ccnc2ccccc12`, the GI50 was active: 0.608 µM.

On to `CCCCCCCCCCCCCCCC(=O)OCCOCCOCCOCc1ccccc1`, for which the GI50 was inactive: > 100 µM.

Consider `CCOc1cc(/C=C/C=C/C=C/c2ccc(N(C)C)cc2)[s+]c2ccccc12`, for which the GI50 is inactive: 34.1 µM.

On to `COc1nc2ncc([C@@H](OC(C)=O)[C@@H](COC(C)=O)OC(C)=O)nc2c(=O)n1C`, for which the GI50 is inactive: > 100 µM.

For `O=S1(=O)C[C@H](NCc2ccccc2)[C@H](NCc2ccccc2)C1`, the GI50 was inactive: > 100 µM.

In the case of `O=C(O)c1c(O)c2cc(Br)ccc2oc1=O`, the GI50 is inactive: 60.3 µM.

As for `Cc1cc2c(cc1C)[n+]([O-])c(C(=O)N1CCN(c3ccc([N+](=O)[O-])cc3)CC1)c(C)[n+]2[O-]`, the GI50 is inactive: 67.3 µM.

Regarding `O=c1[nH]c2cccccc-2c1-c1nc2ccccc2[nH]1`, the GI50 was inactive: 28.6 µM.

With `N#CNC(=N)NC(=O)/C=C/C=C/c1ccc(Cl)cc1`, the GI50 was inactive: > 100 µM.

In the case of `CCSc1ncnc2c(C3OC(CO)C(O)C3O)nsc12` (stereo not drawn), the GI50 is inactive: > 100 µM.

As to `Cc1cc2c(c(C(=O)NCCC(=O)N[C@@H](C)C(=O)OCc3ccccc3)c1)Oc1c(cc(C)cc1C(=O)NCCC(=O)N[C@@H](C)C(=O)OCc1ccccc1)S2`, the GI50 is inactive: > 100 µM.

With `CO[C@@H](c1ccccc1)[C@H](O)[C@@](O)(c1ccccc1)P(=O)(OC)OC`, the GI50 is inactive: > 100 µM.

Take `CCCCCC(/C=C/[C@@H]1[C@@H](C(O)CCCCCC(=O)OC)C(=O)C[C@H]1O[Si](C)(C)C(C)(C)C)OCOCCOC` (stereo partly drawn): the GI50 was inactive: 19.6 µM.

Regarding `COC(=O)C1Cc2c(n(C)c3ccccc23)C(c2ccccc2)N1` (stereo not drawn), the GI50 is inactive: > 100 µM.

As for `CCN1CCC(CNC(=O)c2ccc(N)cc2)N1CC` (stereo not drawn), the GI50 is inactive: > 100 µM.

Consider `NC(=O)N/N=C(\Cc1nc2ccc(C(=O)c3ccccc3)cc2nc1O)C(=O)Nc1ccc(Br)cc1`, for which the GI50 is inactive: > 100 µM.

Consider `COc1ccccc1-n1c(=O)n(C)c(=O)n1C(C)(C)C`, for which the GI50 was inactive: > 100 µM.

In the case of `CN(C)C(=S)/N=c1\sn(C)/c(=N\C(=S)N(C)C)n1C`, the GI50 is inactive: > 100 µM.

Consider `CCOC(=O)c1csc(NC(=O)C(C)N2CCCC2)n1` (stereo not drawn), for which the GI50 is inactive: > 100 µM.

On to `CC(=O)OCC1OC(Sc2nc(-c3ccccc3)c(C#N)c(=O)n2C2OC(COC(C)=O)C(OC(C)=O)C(OC(C)=O)C2OC(C)=O)C(OC(C)=O)C(OC(C)=O)C1OC(C)=O` (stereo not drawn), for which the GI50 is inactive: > 100 µM.

Turning to `CSc1c(C(=O)Nc2ccc(C)cc2)c(N)n(N)c(=O)c1C#N`, the GI50 is inactive: > 100 µM.

Regarding `OC(c1cc(C23CC4CC(CC(C4)C2)C3)nc2c(Cl)cc(Cl)cc12)C1CCCCN1` (stereo not drawn), the GI50 was inactive: 1.74 µM.

`CCOC(=O)C(=C=C=C(c1ccccc1)c1ccccc1)C(=O)OCC`: the GI50 was inactive: 29.8 µM.

As to `CC1Cc2c(Br)nc(N)nc2NC1=O` (stereo not drawn), the GI50 was inactive: > 100 µM.

For `COc1cc(/C=N/N=C(\N)NO)cc(Cl)c1O`, the GI50 is inactive: 71.3 µM.

Consider `O=C1C(Br)=CC2(C=C1Br)CCNC1=C2C2=NCCc3c[nH]c(c32)C1=O`, for which the GI50 is active: 1.11 µM.

Turning to `CC(C)CCCC(C)[C@H]1CCC2[C@H]3C(CC[C@@]21C)[C@@]1(C)CCC=C[C@]12C[C@@H]2[C@@H]3O` (stereo partly drawn), the GI50 is inactive: > 100 µM.

As for `CSC[C@H](NC(=O)COc1cccc2cnccc12)C(=O)NC(Cc1ccccc1)C(O)C(=O)N1CSC[C@H]1C(=O)NC(C)(C)C` (stereo partly drawn), the GI50 is inactive: 75.3 µM.

With `CC(=O)OC1C=CC2CCN3C(=O)c4cc5c(cc4[C@H]1C23)OCO5` (stereo partly drawn), the GI50 is inactive: > 100 µM.

As for `Nc1cccc(S(=O)(=O)NCC(=O)O)c1`, the GI50 is inactive: > 100 µM.

On to `Nc1nc(O)c2ncn(C3C=CC(CO)O3)c2n1` (stereo not drawn), for which the GI50 is inactive: > 100 µM.

On to `CNC(=O)Nc1ccccc1`, for which the GI50 was inactive: > 100 µM.

For the molecule `Cc1ccc2[nH]c3c(C)c4cc[n+](C)cc4c(C)c3c2c1`, the GI50 is inactive: 1.3 µM.

Turning to `COc1ccc2[nH]c3c(C)c4c(c(C)c3c2c1)CN(C)C=C4`, the GI50 was inactive: 1.38 µM.

In the case of `Cc1c(O)c(=O)ccn1CCN`, the GI50 is inactive: 84.7 µM.

(Values after ChEMBL document CHEMBL1201862, “PubChem BioAssay data set” (2004).)
